# Measured values taken from PubChem BioAssay (Tox21).
# The shares of active, inactive and inconclusive entries below differ from those in the screen. Potencies of inconclusive entries are left out as doubtful fits. The source made the active and inactive calls. The call rests on the fitted dose curve; in most records, active means well fitted cell-killing curve with a large enough effect in the repeat runs; inconclusive means weak or mixed curves, or effect the other way; inactive means no such curve, though single readings can be large or run the other way.
# Test: qHTS assay to identify small molecule antagonists of the progesterone receptor (PR) signaling pathway - cell viability counter screen (AID 1346798); further: nearly all actives have a fitted effect of over 50% in size
# Conditions: PR-UAS-bla HEK293T viability, CellTiter-Glo luminescence, 16 h; series mostly up to 92.4 µM
# From the text: National Center for Advancing Translational Sciences [NCATS]
# NIH Chemical Genomics Center [NCGC]
# U.S. Environmental Protection Agency [EPA]
# National Institutes of Environmental Health Sciences [NIEHS]
# National Toxicology Program [NTP]
# U.S. Food and Drug Administration [FDA]
# Progesterone receptor (PR), a nuclear hormone receptor, plays an important role in development, metabolic homeostasis and reproduction. It is activated by the steroid hormone progesterone. Endocrine disrupting chemicals (EDCs) and their interactions with steroid hormone receptors like PR causes disruption of normal endocrine function. To identify the compounds that inhibit PR signaling, a PR-UAS-bla GripTite cell line i.e. PR-UAS-bla HEK293T (Invitrogen, Carlsbad, CA, USA) containing a beta-lactamase reporter gene under the control of an UAS response element was used to screen Tox21 10K compound library. The cytotoxicity of the Tox21 compound library against the PR-bla cell line was tested in parallel by measuring the cell viability using CellTiter-Glo assay in the same wells.
# Tox21 Assay Protocol Summary:
# PR-UAS-bla HEK293T cells were dispensed at 3,000 cells/4 uL of assay medium containing 2% charcoal stripped FBS per well into black wall/clear-bottom 1536-well plates using a Multidrop Combi (ThermoFisher Scientific, Waltham, MA) dispenser. After the assay plates were incubated at a 37C and 5% CO2 for 4 hr, 23 nL of compounds dissolved in DMSO, positive controls or DMSO only was transferred to the assay plate by a Pintool station (Kalypsys, San Diego, CA), followed by addition of 1 uL of R5020 in assay medium using a Flying Reagent Dispenser (FRD, Aurora Discovery, San Diego, CA). The plates were incubated at 37C and 5% CO2 for 16 hr. Then 1 uL of LiveBLAzer B/G FRET substrate was added using a Flying Reagent Dispenser, the plates were incubated at room temperature for 2 hours, and fluorescence intensity was measured by an Envision plate reader (PerkinElmer, Shelton, CT). For cell viability readout that measures cytotoxicity, 4 uL/well of CellTiter-Glo reagent was added into the assay plates using a FRD. After 30 min incubation at room temperature, the luminescence intensity in the plates was measured using a ViewLux (PerkinElmer) plate reader.
# Potency means the concentration at half of the fitted maximal effect; tags describe the fitted curve by direction and shape.
row,SMILES,Potency
1,CCCCCCCCCCCCCC[n+]1ccccc1,active: 54.5 µM
2,COc1ccc(OC(F)(F)F)cc1CN[C@H]1CCCN[C@H]1c1ccccc1,active: 30.6 µM
3,CN1CC[C@H](c2c(O)cc(O)c3c(=O)cc(-c4ccccc4Cl)oc23)[C@H](O)C1,"inconclusive [rising, full curve]"
4,CCCCCCOc1ccccc1C(N)=O,"inconclusive [rising, single point]"
5,O=C(/C=C/c1ccccc1)OCCCc1ccccc1,"inconclusive [rising, partial curve, poor fit]"
6,c1ccc(CCCc2ccncc2)cc1,"inconclusive [cytotoxic, single point]"
7,CCCCCCCCO[C@@H]1O[C@H](CO)[C@@H](O)[C@H](O)[C@H]1O,inactive
8,Cc1c(C)c2c(c(C)c1OC(=O)CCC(=O)O)CC[C@@](C)(CCC[C@H](C)CCC[C@H](C)CCCC(C)C)O2,"inconclusive [cytotoxic, full curve]"
9,OC[C@H]1O[C@@H]2O[C@H]3[C@H](O)[C@@H](O)[C@@H](O[C@H]4[C@H](O)[C@@H](O)[C@@H](O[C@H]5[C@H](O)[C@@H](O)[C@@H](O[C@H]6[C@H](O)[C@@H](O)[C@@H](O[C@H]7[C@H](O)[C@@H](O)[C@@H](O[C@H]1[C@H](O)[C@H]2O)O[C@@H]7CO)O[C@@H]6CO)O[C@@H]5CO)O[C@@H]4CO)O[C@@H]3CO,"inconclusive [cytotoxic, partial curve, poor fit]"
10,O=C(CCN1CCC(c2ccccc2)C1)c1ccc2c(c1)OCCO2 (stereo not given),inactive
11,CCC(C)c1cc([N+](=O)[O-])cc([N+](=O)[O-])c1OC(=O)OC(C)C (stereo not given),inactive
12,C[C@]12CC[C@H]3C(=CCc4cc(O)ccc43)[C@@H]1CCC2=O,"inconclusive [cytotoxic, single point]"
13,Oc1ccc(Cl)c2cccnc12,"inconclusive [cytotoxic, full curve]"
14,CCCC1C(CC)=CC(CC)=CN1c1ccccc1 (stereo not given),"inconclusive [rising, partial curve, poor fit]"
15,Cc1cc(C)cc(N)c1,inactive
16,Cc1c(O)cccc1C(=O)N[C@@H](CSc1ccccc1)[C@H](O)CN1C[C@H]2CCCC[C@H]2C[C@H]1C(=O)NC(C)(C)C,active: 29.8 µM
17,CC1(C)S[C@@H]2[C@H](NC(=O)C(c3ccccc3)S(=O)(=O)O)C(=O)N2[C@H]1C(=O)O (stereo not given in full),"inconclusive [cytotoxic, single point]"
18,Cc1oc(=O)oc1COC(=O)[C@@H]1N2C(=O)[C@@H](NC(=O)[C@H](N)c3ccccc3)[C@H]2SC1(C)C,"inconclusive [rising, partial curve]"
19,CS(=O)(=O)c1ccc(-c2cn3ccccc3n2)cc1,active: 29.8 µM
20,CC(=O)O[C@]1(C(C)=O)CC[C@H]2[C@@H]3C=C(Cl)C4=CC(=O)CC[C@]4(C)[C@H]3CC[C@@]21C,"inconclusive [cytotoxic, single point]"

row,SMILES,Potency
1,CN(C)CCC=C1c2ccccc2C=Cc2ccccc21,"inconclusive [cytotoxic, partial curve]"
2,Cn1c(N)nc2nc[nH]c2c1=O,"inconclusive [rising, full curve, poor fit]"
3,CC/C=C\C/C=C\C/C=C\CCCCCCCC(=O)O,"inconclusive [cytotoxic, single point]"
4,Cc1nc(Nc2ncc(C(=O)Nc3c(C)cccc3Cl)s2)cc(N2CCN(CCO)CC2)n1,inactive
5,C=CN1CCCC1=O,"inconclusive [cytotoxic, single point]"
6,CCOC(=O)NNc1ccc(N(CC)CC(C)O)nn1 (stereo not given),inactive
7,CCCCCCCCCc1ccc(OCCOCCO)cc1,"inconclusive [cytotoxic, single point]"
8,CCc1cc(C(C)(C)C)c(O)c(C(C)(C)C)c1,inactive
9,NCCO,"inconclusive [cytotoxic, partial curve, poor fit]"
10,Cc1cccc(Br)c1,active: 54.8 µM
11,Brc1cc(Br)c(Oc2cc(Br)c(Br)cc2Br)cc1Br,"inconclusive [cytotoxic, single point]"
12,C[C@@H]1CN(CCCn2c3ccccc3c3ccccc32)C[C@H](C)N1,active: 11.9 µM
13,CNS(=O)(=O)c1cc(C(=O)N2CCC(CCN3C4CCC3CC(n3c(C)nc5ccccc53)C4)(c3cccc(F)c3)CC2)c(Cl)cc1F (stereo not given),active: 24.3 µM
14,C=C(C)[C@@H]1CCC2=CCC[C@@H](C)[C@]2(C)C1,"inconclusive [rising, single point]"
15,COC(=O)/C=C/c1ccccc1,"inconclusive [cytotoxic, partial curve]"
16,O=C(NOCC1CC1)c1ccc(F)c(F)c1Nc1ccc(I)cc1Cl,"inconclusive [cytotoxic, single point]"
17,Oc1ccc2c(c1)OCO2,"inconclusive [cytotoxic, partial curve, poor fit]"
18,Cc1ccc(Cl)c(Nc2ccccc2C(=O)O)c1Cl,"inconclusive [cytotoxic, single point]"
19,NC(=O)CC[C@@H]1NC(=O)[C@H](Cc2ccccc2)NC(=O)[C@H](Cc2ccc(O)cc2)NC(=O)CCSSC[C@@H](C(=O)N2CCC[C@H]2C(=O)N[C@@H](CCCN=C(N)N)C(=O)NCC(N)=O)NC(=O)[C@H](CC(N)=O)NC1=O,"inconclusive [rising, single point]"
20,S=C1NC=NC2N=CNC12 (stereo not given),"inconclusive [cytotoxic, partial curve, poor fit]"
